Measurements taken from PubChem BioAssay (NCATS).
The inconclusive results got no clear call from the source; some entries with a clear call stand among them for comparison. For some assays here: Potencies of inconclusive entries are doubtful fits and often do not repeat. The source made the active and inactive calls. Calls come from the whole dose curve; as a rule, active = well fitted curve in the direction sought with a large enough effect; inconclusive = small, poorly fitted or top-dose-only effect, or another doubt; inactive = no such curve, though single readings can be large; an effect the other way counts as inactive or inconclusive.

Assays:
[1] = P-glycoprotein substrates identified in KB-8-5-11 adenocarcinoma cell line, qHTS therapeutic library screen (AID 1346987); conditions: activity change, negative = cytotoxicity: at 44.5 µM (top of the series); note: nearly all actives have a fitted effect of over 65% in size
Summary of the method: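 Compounds are pinned in dose-response onto KB-8-5-11 cells (500 cells/well, colchicine-free medium) and left 72 h at 37 degree C. CellTiter-Glo luminescence then yields AC50 values.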

[2] = qHTS of pediatric cancer cell lines to identify multiple opportunities for drug repurposing: Primary screen for NB-EBc1 cells (AID 1347095);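 note: plate controls were DMSO neutral control for no effect and bortezomib for full effect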
Summary of the method: (§1)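 Cells seeded at 500-1,000 cells/well in growth media, rested 5 hours at 37 degrees C, 5% CO2, then dosed; MIPE compounds at 11-point (from 0.78 nM) and NPC at 8-point (from 0.59 nM) final concentrations. Viability by CellTiter-Glo luminescence after 48 hours.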

[3] = qHTS of pediatric cancer cell lines to identify multiple opportunities for drug repurposing: Primary screen for Saos-2 cells (AID 1347097); conditions: Saos-2 viability, CellTiter-Glo ATP luminescence, 48 h; activity change, negative = cytotoxic: at 46 µM (top of the series); note: % is set by controls: 0 for no effect and ±100 for the full control effect; nearly all actives have a fitted effect of over 40% in size
Summary of the method: as §1

[4] = qHTS of pediatric cancer cell lines to identify multiple opportunities for drug repurposing: Primary screen for BT-12 cells (AID 1347101);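 note: plate controls were DMSO for no effect and bortezomib positive control for full effect; nearly all actives have a fitted effect of over 25% in size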
Summary of the method: (§2)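 Cells (500-1,000/well) rested 5 h, then received compounds for 48 h; metabolically active cells were measured by CellTiter-Glo luminescence. Final concentrations spanned up to 46 µM (MIPE, 11-point) or 0.59 nM-46 µM (NPC, 8-point) in primary screens, 11-point in follow-ups.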

[5] = qHTS of pediatric cancer cell lines to identify multiple opportunities for drug repurposing: Primary screen for OHS-50 cells (AID 1347103); conditions: OHS-50 osteosarcoma viability, CellTiter-Glo luminescence, 48 h; activity change, negative = cytotoxic: at 57.3 µM (top of the series);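 note: plate controls were DMSO neutral control for no effect and bortezomib positive control for full effect; nearly all actives have a fitted effect of over 40% in size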
Summary of the method: as §2

[6] = qHTS of pediatric cancer cell lines to identify multiple opportunities for drug repurposing: Primary screen for MG 63 (6-TG R) cells (AID 1347105); conditions: MG 63 (6-TG R) viability, CellTiter-Glo, 48 h; activity change, negative = cytotoxic: at 46 µM (top of the series); note: % is set by controls: 0 for no effect and ±100 for the full control effect; nearly all actives have a fitted effect of over 50% in size
Summary of the method: as §1

[7] = Quantitative High-Throughput drug screen in 47 multiple myeloma cell lines against the NCATS MIPE library collection: Delta47_JCRB cell viability assay (AID 1918925; note: nearly all actives have a fitted effect of over 45% in size)
Summary of the method: (§3)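 CellTiter-Glo ATP luminescence gave viability after 48 h compound treatment at 37C of 500 multiple myeloma cells per well. Normalisation used DMSO-only wells as 100% and media-only wells as 0% viability; primary qHTS of approved and investigational drugs.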

[8] = Quantitative High-Throughput drug screen in 47 multiple myeloma cell lines against the NCATS MIPE library collection: AMO1_DSMZ cell viability assay (AID 1918927; note: nearly all actives have a fitted effect of over 30% in size); conditions: AMO1 myeloma cells viability, CellTiter-Glo ATP luminescence, 48 h; viability, % of DMSO: at 45.8 µM (top of the series)
Summary of the method: as §3

[9] = Quantitative High-Throughput drug screen in 47 multiple myeloma cell lines against the NCATS MIPE library collection: KMM1_JCRB cell viability assay (AID 1918960); note: potency is the fitted concentration of half-maximal effect; nearly all actives have a fitted effect of over 30% in size
Summary of the method: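 500 cells/well; MIPE 4.0 library pinned in; 48 h, 37 °C, 5% CO2; CellTiter-Glo ATP luminescence. Controls: DMSO = 100% viability, medium only = 0%.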

[10] = Quantitative High-Throughput drug screen in 47 multiple myeloma cell lines against the NCATS MIPE library collection: Karpas417_ECACC cell viability assay (AID 1918961); conditions: Karpas417 myeloma viability, CellTiter-Glo ATP luminescence, 48 h; viability (% of DMSO): at 45.8 µM (top of the series); note: potency is the fitted concentration of half-maximal effect
Summary of the method: (§4)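 Viability readout: CellTiter-Glo luminescence following 5 min room-temperature incubation with reagent. Prior exposure: 48 h, 37C, humidified 5% CO2, 500 cells per well.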

[11] = Quantitative High-Throughput drug screen in 47 multiple myeloma cell lines against the NCATS MIPE library collection: KHM11_PLB cell viability assay (AID 1918962); note: nearly all actives have a fitted effect of over 35% in size
Summary of the method: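 We plated 500 myeloma cells per well, pinned in MIPE 4.0 compounds, and incubated for 48 hours at 37C. ATP was then quantified with CellTiter-Glo, with DMSO and media-only wells defining 100% and 0%.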

[12] = Quantitative High-Throughput drug screen in 47 multiple myeloma cell lines against the NCATS MIPE library collection: JIM1_ECACC cell viability assay (AID 1918964; note: potency is the fitted concentration of half-maximal effect); conditions: JIM1 myeloma viability, CellTiter-Glo ATP luminescence, 48 h; viability (% of DMSO): at 45.8 µM (top of the series)
Summary of the method: as §3

[13] = Quantitative High-Throughput drug screen in 47 multiple myeloma cell lines against the NCATS MIPE library collection: INA6_PLB cell viability assay (AID 1918965; note: nearly all actives have a fitted effect of over 55% in size)
Summary of the method: as §4

[14] = Quantitative High-Throughput drug screen in 47 multiple myeloma cell lines against the NCATS MIPE library collection: JJN3_DSMZ cell viability assay (AID 1918966; note: potency is the fitted concentration of half-maximal effect; nearly all actives have a fitted effect of over 50% in size); conditions: JJN3 myeloma cells viability, CellTiter-Glo ATP, 48 h; viability, % of DMSO: at 45.8 µM (top of the series)
Summary of the method: as §3

[15] = Quantitative High-Throughput drug screen in 47 multiple myeloma cell lines against the NCATS MIPE library collection: Karpas25_ECACC cell viability assay (AID 1918968; note: nearly all actives have a fitted effect of over 35% in size)
Summary of the method: as §3

[16] = Quantitative High-Throughput drug screen in 47 multiple myeloma cell lines against the NCATS MIPE library collection: KMS12BM_JCRB cell viability assay (AID 1918971); note: nearly all actives have a fitted effect of over 35% in size
Summary of the method: (§5)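 Myeloma cell lines, 500 cells per well, exposed to MIPE 4.0 library compounds for 48 h at 37C, 5% CO2. Viability from ATP by CellTiter-Glo luminescence; normalised to DMSO (100%) and media-only (0%) wells.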

[17] = Quantitative High-Throughput drug screen in 47 multiple myeloma cell lines against the NCATS MIPE library collection: KMS12PE_JCRB cell viability assay (AID 1918972); note: potency is the fitted concentration of half-maximal effect; nearly all actives have a fitted effect of over 30% in size
Summary of the method: as §4

[18] = Quantitative High-Throughput drug screen in 47 multiple myeloma cell lines against the NCATS MIPE library collection: KMS20_JCRB cell viability assay (AID 1918973); conditions: CellTiter-Glo ATP, 48 h; viability (% of DMSO): at 45.8 µM (top of the series); note: potency is the fitted concentration of half-maximal effect; nearly all actives have a fitted effect of over 45% in size
Summary of the method: as §3

[19] = Quantitative High-Throughput drug screen in 47 multiple myeloma cell lines against the NCATS MIPE library collection: KMS21BM_JCRB cell viability assay (AID 1918974); note: potency is the fitted concentration of half-maximal effect
Summary of the method: as §3

[20] = Quantitative High-Throughput drug screen in 47 multiple myeloma cell lines against the NCATS MIPE library collection: KMS26_JCRB cell viability assay (AID 1918975); conditions: KMS26 myeloma cells viability, CellTiter-Glo ATP, 48 h; viability (% of DMSO): at 45.8 µM (top of the series); note: nearly all actives have a fitted effect of over 45% in size
Summary of the method: as §5

[21] = Quantitative High-Throughput drug screen in 47 multiple myeloma cell lines against the NCATS MIPE library collection: MMM1_PLB cell viability assay (AID 1918976); note: potency is the fitted concentration of half-maximal effect; nearly all actives have a fitted effect of over 35% in size
Summary of the method: (§6)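 Cells were exposed to library compounds for 48 hours, after which ATP was measured by CellTiter-Glo. Signal was taken as median relative luminescence units.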

[22] = Quantitative High-Throughput drug screen in 47 multiple myeloma cell lines against the NCATS MIPE library collection: MOLP8_DSMZ cell viability assay (AID 1918977); conditions: MOLP8 myeloma viability, CellTiter-Glo ATP luminescence, 48 h; viability (% of control): at 45.8 µM (top of the series); note: nearly all actives have a fitted effect of over 45% in size
Summary of the method: as §6

[23] = Quantitative High-Throughput drug screen in 47 multiple myeloma cell lines against the NCATS MIPE library collection: NCIH929_DSMZ cell viability assay (AID 1918978); note: nearly all actives have a fitted effect of over 35% in size
Summary of the method: as §6

[24] = Quantitative High-Throughput drug screen in 47 multiple myeloma cell lines against the NCATS MIPE library collection: MM1S_ATCC cell viability assay (AID 1918980); note: nearly all actives have a fitted effect of over 45% in size
Summary of the method: as §6

[25] = Quantitative High-Throughput drug screen in 47 multiple myeloma cell lines against the NCATS MIPE library collection: MM1R_ATCC cell viability assay (AID 1918981); note: nearly all actives have a fitted effect of over 35% in size
Summary of the method: as §6

[26] = Quantitative High-Throughput drug screen in 47 multiple myeloma cell lines against the NCATS MIPE library collection: LP1_DSMZ cell viability assay (AID 1918982); note: nearly all actives have a fitted effect of over 35% in size
Summary of the method: as §6

[27] = Quantitative High-Throughput drug screen in 47 multiple myeloma cell lines against the NCATS MIPE library collection: KMS28PE_JCRB cell viability assay (AID 1918983); note: nearly all actives have a fitted effect of over 35% in size
Summary of the method: as §6

[28] = Quantitative High-Throughput drug screen in 47 multiple myeloma cell lines against the NCATS MIPE library collection: L363_DSMZ cell viability assay (AID 1918984); conditions: L363 myeloma viability, CellTiter-Glo ATP luminescence, 48 h; viability (% of control): at 45.8 µM (top of the series); note: nearly all actives have a fitted effect of over 40% in size
Summary of the method: as §6

[29] = Quantitative High-Throughput drug screen in 47 multiple myeloma cell lines against the NCATS MIPE library collection: KMS34_JCRB cell viability assay (AID 1918985); note: nearly all actives have a fitted effect of over 40% in size
Summary of the method: as §6

[30] = Quantitative High-Throughput drug screen in 47 multiple myeloma cell lines against the NCATS MIPE library collection: OCIMY5_PLB cell viability assay (AID 1918988); note: potency is the fitted concentration of half-maximal effect; nearly all actives have a fitted effect of over 65% in size
Summary of the method: as §6

[31] = Quantitative High-Throughput drug screen in 47 multiple myeloma cell lines against the NCATS MIPE library collection: OPM1_PLB cell viability assay (AID 1918989); note: nearly all actives have a fitted effect of over 40% in size
Summary of the method: as §6

[32] = Quantitative High-Throughput drug screen in 47 multiple myeloma cell lines against the NCATS MIPE library collection: SKMM1_PLB cell viability assay (AID 1919863); conditions: SKMM1 myeloma viability, CellTiter-Glo ATP, 48 h; viability: stronger effect = lower value
Summary of the method: as §6

[33] = Quantitative High-Throughput drug screen in 47 multiple myeloma cell lines against the NCATS MIPE library collection: VP6_DJ cell viability assay (AID 1919867); note: nearly all actives have a fitted effect of over 40% in size
Summary of the method: as §6

[34] = Quantitative High-Throughput drug screen in 47 multiple myeloma cell lines against the NCATS MIPE library collection: UTMC2_PLB cell viability assay (AID 1919868); conditions: CellTiter-Glo ATP luminescence, 48 h; viability (% of DMSO control): at 45.8 µM (top of the series); note: potency is the fitted concentration of half-maximal effect; nearly all actives have a fitted effect of over 55% in size
Summary of the method: as §6

[35] = Quantitative High-Throughput drug screen in 47 multiple myeloma cell lines against the NCATS MIPE library collection: OPM2_DSMZ cell viability assay (AID 1919872); note: nearly all actives have a fitted effect of over 30% in size
Summary of the method: as §3
Tags give direction and shape of the fitted curve.

CC(=O)N[C@H]1[C@@H]([C@H](O)[C@H](O)CO)OC(C(=O)O)=C[C@@H]1N=C(N)N
inactive: Potency [1] | Potency [2] | Potency [3] | Potency [4] | Potency [5] | Potency [6] | Potency [7] | Potency [8] | Potency [11] | Potency [13] | Potency [15] | Potency [16] | Potency [20] | Potency [23] | Potency [24] | Potency [25] | Potency [26] | Potency [27] | Potency [28] | Potency [29] | Potency [31] | Potency [33] | Potency [35]
inconclusive: Potency [9] 1.3 nM [rising, full curve] | Potency [10] 13200 nM [cytotoxic, single point] | Potency [12] 743 nM [rising, full curve, poor fit] | Potency [14] 8330 nM [rising, single point] | Potency [17] 1.5 nM [rising, full curve, poor fit] | Potency [18] 29.6 nM [rising, full curve, poor fit] | Potency [19] 2.3 nM [cytotoxic, full curve, poor fit] | Potency [21] 3.7 nM [rising, full curve, poor fit] | viability (% of control) [22] 137% | Potency [30] 11800 nM [rising, single point] | Potency [32] 7430 nM [rising, partial curve, poor fit] | Potency [34] 9350 nM [cytotoxic, partial curve, poor fit]
